In patent US20260098080A1, “A MODIFIED PROTEIN SCAFFOLD AND USE THEREOF” (EVOLVERITAS BIOTECHNOLÓGIAI KORLÁTOLT FELELOSSÉGU TÁRSASÁG, priority 2022, published 2026):
Several values for one entry are separate records, joined by “and”; a condition that tells them apart may be missing. Equal entries are not always repeated. Part of at least one peptide drawing is inferred or uncertain, most often the ends. Some entries repeat one wording, which the source may state once for all of them. Bridges are numbered along the chain shown (N, C = ends). Where no end group is shown, it is not given here.

Assays:
[1] = biological target: T1, human MASP-2 catalytic fragment (Homo sapiens, UniProt O00187); assay: Surface plasmon resonance kinetics and affinity on immobilized human MASP-2 catalytic fragment; assay type: binding; conditions: Human MASP-2 catalytic fragment, SPR
T1 construct: catalytic enzyme fragments containing the three C-terminal domains: CCP1-CCP2-SP; made in house

[2] = biological target: T2, rat MASP-2 catalytic fragment (Rattus norvegicus, UniProt Q9JJS8); assay: Surface plasmon resonance kinetics and affinity on immobilized rat MASP-2 catalytic fragment; assay type: binding; conditions: Rat MASP-2 catalytic fragment, SPR
T2 construct: starts with Gln298 and ends with Phe685 according to UniProt numbering (entry Q9JJS8); made in house

human lectin pathway = assay: Human lectin pathway inhibition, C4 deposition ELISA on mannan in normal human serum; assay type: biochemical; conditions: Human lectin pathway, C4 deposition, normalised IC50
rat lectin pathway = assay: Rat lectin pathway inhibition, C4 deposition ELISA on mannan in pooled rat serum; assay type: biochemical; conditions: Rat lectin pathway, C4 deposition, normalised IC50
[3] = tested on: human classical complement pathway; assay: Human classical pathway activation, C3 deposition on aggregated human IgG, human serum; assay type: biochemical
[4] = tested on: human alternative complement pathway; assay: Human alternative pathway activation, C3 deposition on zymosan, human serum; assay type: biochemical
[5] = tested on: rat classical complement pathway; assay: Rat classical pathway activation in rat serum; assay type: biochemical
[6] = tested on: rat alternative complement pathway; assay: Rat alternative pathway activation in rat serum; assay type: biochemical; conditions: for inhibitory effect against the alternative pathway in rat serum: 6-times diluted rat serum; for Pathway activity at 10 μM inhibitor concentration, Alternative: rat serum
extrinsic pathway [7] = assay: Human blood coagulation: prothrombin time; assay type: biochemical; conditions: human plasma, duplicates
Method: (§1) The effect of the proteins of the present invention on the blood coagulation process was tested in three standard assays, the thrombin time, testing any direct effects on thrombin; prothrombin time, testing any effects on the extrinsic pathway; and the activated partial thromboplastin time, testing any effects on the intrinsic pathway.
(§2) Blood was collected from a healthy individual by vein puncture after informed consent. The blood was treated with sodium-citrate (3.8% wt/vol) and centrifuged. All three assays were performed on the automated instrument Sysmex CA-1500 (Sysmex) with Innovin reagent (Dale Behring, Marburg, Germany).
(§3) The proteins of the present invention were applied in a twofold serial dilution in 1.4% wt/vol sodium bicarbonate (vehicle) with the highest final concentration being 10 μM (3.4 μM for EVO24 (SEQ ID NO: 15)) and the lowest final concentration being 156 nM (53 nM for EVO24 (SEQ ID NO: 15)).
(§4) All measurements were done in duplicates and a vehicle control was also tested. The highest concentration value is about 5 orders of magnitudes higher than the KD values of the four proteins of the present invention on human MASP-2.

intrinsic pathway [8] = assay: Human blood coagulation: activated partial thromboplastin time; assay type: biochemical; conditions: human plasma, duplicates
Method: as §1, §2, §3, §4

thrombin [9] = assay: Human blood coagulation: thrombin time; assay type: biochemical; conditions: human plasma, duplicates
Method: as §1, §2, §3, §4

extrinsic pathway [10] = assay: Rat blood coagulation: prothrombin time, Wistar rat plasma; assay type: biochemical; conditions: mean
intrinsic pathway [11] = assay: Rat blood coagulation: activated partial thromboplastin time, Wistar rat plasma; assay type: biochemical; conditions: mean
thrombin [12] = assay: Rat blood coagulation: thrombin time, Wistar rat plasma; assay type: biochemical; conditions: mean
[13] = tested on: complement lectin pathway; assay: In vivo lectin pathway inhibition in rats, residual lectin pathway activity of serum samples ex vivo (C4b deposition); conditions: rat, 4.5 μmol/kg (about 32 mg/kg) iv + ip bolus
[14] = 0.1 μM inhibitor, 6-fold diluted rat serum
[15] = 0.5 μM inhibitor, 6-fold diluted rat serum
[16] = 1 μM inhibitor, 6-fold diluted rat serum
[17] = 2 μM inhibitor, 6-fold diluted rat serum
[18] = 3 μM inhibitor, 6-fold diluted rat serum
[19] = 5 μM inhibitor, 6-fold diluted rat serum
[20] = 10 μM inhibitor, 6-fold diluted rat serum
[21] = 10 μM, 6-fold diluted rat serum

T1 sequence (O00187 445-686 limits assumed): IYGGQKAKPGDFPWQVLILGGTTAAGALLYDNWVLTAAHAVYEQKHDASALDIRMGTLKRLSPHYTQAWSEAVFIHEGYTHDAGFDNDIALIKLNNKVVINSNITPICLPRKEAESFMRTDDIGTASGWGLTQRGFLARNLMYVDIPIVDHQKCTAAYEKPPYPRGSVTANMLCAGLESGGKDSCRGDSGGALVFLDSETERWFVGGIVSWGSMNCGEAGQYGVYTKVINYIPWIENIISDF
T1 sequence (O00187 298-444 partner limits assumed): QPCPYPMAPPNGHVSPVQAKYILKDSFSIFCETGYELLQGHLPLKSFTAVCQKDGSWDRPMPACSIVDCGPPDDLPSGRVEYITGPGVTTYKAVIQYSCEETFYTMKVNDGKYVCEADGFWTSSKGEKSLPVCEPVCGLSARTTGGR
T2 sequence (Q9JJS8 298-685): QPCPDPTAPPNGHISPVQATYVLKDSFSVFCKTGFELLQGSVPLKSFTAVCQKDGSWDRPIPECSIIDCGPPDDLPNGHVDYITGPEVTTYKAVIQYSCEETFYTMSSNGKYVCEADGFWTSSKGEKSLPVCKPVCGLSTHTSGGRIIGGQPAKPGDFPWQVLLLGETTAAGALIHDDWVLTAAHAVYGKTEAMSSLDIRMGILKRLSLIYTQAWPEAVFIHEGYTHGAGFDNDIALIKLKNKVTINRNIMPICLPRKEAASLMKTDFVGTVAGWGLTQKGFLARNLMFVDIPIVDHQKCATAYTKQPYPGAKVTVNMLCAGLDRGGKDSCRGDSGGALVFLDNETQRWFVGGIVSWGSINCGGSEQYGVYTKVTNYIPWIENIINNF

## KPDFCFLENDPGPCRALKRRYFYNNQTKQCERFYYGGCFGNMNNFVTLEECKNICEDG (disulfide 5-55, 14-38, 30-51) [EVO23]
[1]
  koff: 0.000197 s⁻¹
  kon: 2.1e+06 M⁻¹ s⁻¹
[2]
  koff: 0.000662 s⁻¹
  kon: 982000 M⁻¹ s⁻¹
Human lectin pathway
  IC50: 2.9 nM
Rat lectin pathway
  IC50: 8.1 nM
[3]
  Pathway activity at 10 μM inhibitor concentration, Classical: 86.4%
[4]
  Pathway activity at 10 μM inhibitor concentration, Alternative: 96.8%
[5]
  inhibition of the classical pathway in rat serum: do not inhibit
  Pathway activity at 10 μM inhibitor concentration, Classical: 86.7%
[6]; [14]
  Residual activity of the alternative pathway: 85.8%
[6]; [15]
  Residual activity of the alternative pathway: 87.5%
[6]; [16]
  Residual activity of the alternative pathway: 88.1%
[6]; [17]
  Residual activity of the alternative pathway: 87.7%
[6]; [18]
  Residual activity of the alternative pathway: 100.8%
[6]; [19]
  Residual activity of the alternative pathway: 76.7%
[6]; [20]
  Residual activity of the alternative pathway: 16.8%
[6]; [21]
  inhibition of the alternative pathway in rat serum: over 80%
[6]
  inhibitory effect against the alternative pathway in rat serum: only at high, 10 micromolar concentrations
[6]; 10 μM inhibitor
  Pathway activity at 10 μM inhibitor concentration, Alternative: 12.2%
[6]; up to 5 μM concentration
  inhibition of the alternative pathway in rat serum: Neither proteins exert significant inhibition
Extrinsic pathway [7]; 0.15625 μM
  PI: 10.2 and 10.1
Extrinsic pathway [7]; 0.3125 μM
  PI: 10.2 and 10.1
Extrinsic pathway [7]; 0.625 μM
  PI: 10.4 and 10.5
Extrinsic pathway [7]; 1.25 μM
  PI: 10.7
Extrinsic pathway [7]; 2.5 μM
  PI: 11.2 and 11.4
Extrinsic pathway [7]; 5 μM
  PI: 11.9 and 11.8
Extrinsic pathway [7]; 10 μM
  PI: 13.4 and 13.5
Intrinsic pathway [8]; 0.15625 μM
  APTT: 33.6 and 33.5
Intrinsic pathway [8]; 0.3125 μM
  APTT: 34.8 and 34.7
Intrinsic pathway [8]; 0.625 μM
  APTT: 36.7 and 36.9
Intrinsic pathway [8]; 1.25 μM
  APTT: 40.5 and 40.4
Intrinsic pathway [8]; 2.5 μM
  APTT: 46.0 and 46.6
Intrinsic pathway [8]; 5 μM
  APTT: 57.9 and 56.4
Intrinsic pathway [8]; 10 μM
  APTT: 86.6 and 90.2
Thrombin [9]; 0.15625 μM
  TT: 16.8
Thrombin [9]; 0.3125 μM
  TT: 16.9 and 16.7
Thrombin [9]; 0.625 μM
  TT: 16.7 and 16.8
Thrombin [9]; 1.25 μM
  TT: 16.5 and 16.7
Thrombin [9]; 2.5 μM
  TT: 16.8 and 16.9
Thrombin [9]; 5 μM
  TT: 17.0 and 16.6
Thrombin [9]; 10 μM
  TT: 17.3 and 16.9
Extrinsic pathway [10]; 10 μM
  PT: 10.30 s
Intrinsic pathway [11]; 10 μM
  APTT: 32.35 s
Thrombin [12]; 10 μM
  TT: 28.42 s

## KPDFCFLENDPGPCRALKRRYFYNNQTKQCERFGYGGCLGNMNNFVTLEECKNICEDG (disulfide 5-55, 14-38, 30-51) [EVO21]
Human lectin pathway
  IC50: 5.7 nM
Rat lectin pathway
  IC50: 10.9 nM
[3]
  Pathway activity at 10 μM inhibitor concentration, Classical: 67.7%
[4]
  Pathway activity at 10 μM inhibitor concentration, Alternative: 97.8%
[5]
  inhibition of the classical pathway in rat serum: do not inhibit
  Pathway activity at 10 μM inhibitor concentration, Classical: 59.8%
[6]
  inhibitory effect against the alternative pathway in rat serum: only at high, 10 micromolar concentrations
[6]; 10 μM inhibitor
  Pathway activity at 10 μM inhibitor concentration, Alternative: 65.2%
Intrinsic pathway [11]; 10 μM
  APTT: 33.53 s
Thrombin [12]; 10 μM
  TT: 23.92 s

## KPDFCFLENDPGPCRALKRRYFYNNQTKQCERFYYGGCLGNMNNFETLEECKNICEDG (disulfide 5-55, 14-38, 30-51) [EVO24]
[1]
  koff: 0.000622 s⁻¹
  kon: 2.25e+06 M⁻¹ s⁻¹
[2]
  koff: 0.000327 s⁻¹
  kon: 1.13e+06 M⁻¹ s⁻¹
Human lectin pathway
  IC50: 7.6 nM
Rat lectin pathway
  IC50: 6.6 nM
[5]
  inhibition of the classical pathway in rat serum: do not inhibit
[6]
  inhibitory effect against the alternative pathway in rat serum: only at high, 10 micromolar concentrations
Extrinsic pathway [7]; 0.053125 μM
  PI: 10.0 and 9.9
Extrinsic pathway [7]; 0.10625 μM
  PI: 10.0
Extrinsic pathway [7]; 0.2125 μM
  PI: 10.0 and 9.9
Extrinsic pathway [7]; 0.425 μM
  PI: 10.0
Extrinsic pathway [7]; 0.85 μM
  PI: 10.2 and 10.1
Extrinsic pathway [7]; 1.7 μM
  PI: 10.4 and 10.3
Extrinsic pathway [7]; 3.4 μM
  PI: 10.8
Intrinsic pathway [8]; 0.053125 μM
  APTT: 32.1 and 32.2
Intrinsic pathway [8]; 0.10625 μM
  APTT: 32.1 and 32.4
Intrinsic pathway [8]; 0.2125 μM
  APTT: 32.7 and 33.1
Intrinsic pathway [8]; 0.425 μM
  APTT: 33.0 and 33.1
Intrinsic pathway [8]; 0.85 μM
  APTT: 34.0 and 34.4
Intrinsic pathway [8]; 1.7 μM
  APTT: 35.8 and 35.9
Intrinsic pathway [8]; 3.4 μM
  APTT: 39.6 and 40.2
Extrinsic pathway [10]; 3.4 μM
  PT: 9.53 s
Intrinsic pathway [11]; 3.4 μM
  APTT: 36.08 s
Thrombin [12]; 3.4 μM
  TT: 40.97 s
[13]; after 1 hour
  lectin pathway inhibition: 80%
[13]; after 4 hours
  lectin pathway inhibition: about 50%

## KPDFCFLENDPGPCRALKLRYFYNNQTKQCERFGYGGCLGNMNNFVTLEECKNICEDG (disulfide 5-55, 14-38, 30-51) [EVO214]
[1]
  koff: 4.78e-05 s⁻¹
  kon: 1.27e+06 M⁻¹ s⁻¹
[2]
  koff: 7.19e-05 s⁻¹
  kon: 614000 M⁻¹ s⁻¹
Human lectin pathway
  IC50: 4.3 nM
Rat lectin pathway
  IC50: 11.2 nM
[5]
  inhibition of the classical pathway in rat serum: do not inhibit
[6]; [14]
  Residual activity of the alternative pathway: 92.2%
[6]; [15]
  Residual activity of the alternative pathway: 103.2%
[6]; [16]
  Residual activity of the alternative pathway: 107.2%
[6]; [17]
  Residual activity of the alternative pathway: 102.8%
[6]; [18]
  Residual activity of the alternative pathway: 104.1%
[6]; [19]
  Residual activity of the alternative pathway: 94.1%
[6]; [20]
  Residual activity of the alternative pathway: 61.1%
[6]; [21]
  inhibition of the alternative pathway in rat serum: 39%
[6]
  inhibitory effect against the alternative pathway in rat serum: only at high, 10 micromolar concentrations
[6]; up to 5 μM concentration
  inhibition of the alternative pathway in rat serum: Neither proteins exert significant inhibition
Extrinsic pathway [7]; 0.15625 μM
  PI: 10.0 and 9.9
Extrinsic pathway [7]; 0.3125 μM
  PI: 9.9
Extrinsic pathway [7]; 0.625 μM
  PI: 9.9
Extrinsic pathway [7]; 1.25 μM
  PI: 10.0
Extrinsic pathway [7]; 2.5 μM
  PI: 10.0
Extrinsic pathway [7]; 5 μM
  PI: 10.2
Extrinsic pathway [7]; 10 μM
  PI: 10.7
Intrinsic pathway [8]; 0.15625 μM
  APTT: 33.4 and 33.8
Intrinsic pathway [8]; 0.3125 μM
  APTT: 35.4 and 35.1
Intrinsic pathway [8]; 0.625 μM
  APTT: 37.3 and 37.9
Intrinsic pathway [8]; 1.25 μM
  APTT: 41.1 and 41.3
Intrinsic pathway [8]; 2.5 μM
  APTT: 47.0 and 46.1
Intrinsic pathway [8]; 5 μM
  APTT: 54.2 and 53.8
Intrinsic pathway [8]; 10 μM
  APTT: 70.7 and 71.1
Extrinsic pathway [10]; 10 μM
  PT: 9.88 s
Intrinsic pathway [11]; 10 μM
  APTT: 30.68 s
Thrombin [12]; 10 μM
  TT: 31.45 s
